In patent publication US20240295544A1 (priority 2020, published 2024):
Counter-ions that a name gives are not always drawn. Where a SMILES comes first, the peptide text is derived from it. The star is where a group is joined. Cbz = O=C(OCc1ccccc1)*; CHN2 = [N-]=[N+]=C*; tBu = CC(C)(C)*

System: SARS-CoV-2
Type: cell-based

SMILES: CCCNC(=O)[C@H]1O[C@@H]1C(=O)N[C@H](C(=O)N1CCC[C@H]1C(=O)O)[C@@H](C)CC [CA-074]
- effect on detection of viral transcripts / viral infection in infected CMs: did not

SMILES: CC(C)(C)Oc1ccc(C[C@H](NC(=O)[C@H](Cc2ccccc2)NC(=O)OCc2ccccc2)C(=O)C=[N+]=[N-])cc1 [Z-Phe-Tyr(tBu)-diazomethylketone] (Cbz-Phe-Tyr(tBu)-CHN2)
- viral RNA detection compared to vehicle: about 10%

SMILES: Cc1cccc(/C=N/Nc2cc(N3CCOCC3)nc(OCCc3ccccn3)n2)c1 [apilimod]
- viral RNA detection compared to vehicle: ~0.1%

SMILES: CO/C1=C\C(C)=C\[C@@H](C)[C@@H](O)[C@@H](C)C/C(C)=C/C=C/[C@H](OC)[C@@H]([C@@H](C)[C@@H](O)[C@H](C)[C@@]2(O)C[C@@H](O)[C@H](C)[C@@H](C(C)C)O2)OC1=O [bafilomycin]
- viral RNA detection compared to vehicle: 1%

SMILES: CN(C)C(=O)COC(=O)Cc1ccc(OC(=O)c2ccc(NC(=N)N)cc2)cc1 [camostat mesylate]
- effect on detection of viral transcripts / viral infection in infected CMs: did not significantly inhibit viral infection
